Laboratory results published in paper PMC5467236.

How the values were obtained:
[1] = molecular target: full-length CaMKIIα wild type (Ca2+/calmodulin-dependent protein kinase II α) holoenzyme (rat) (UniProt P11275); assay: negative-stain single particle EM; purified CaMKIIα (~100 nM) in 50 mM HEPES pH 7.4, 120 mM KCl, 0.5 mM EGTA on carbon grids, uranyl formate stain; reference-free and focused 2D classification, tilted-series 3D reconstruction at ~20 Å with D6 symmetry; general features also seen in vitrified specimens
[2] = molecular target: full-length CaMKIIα wild type (Ca2+/calmodulin-dependent protein kinase II α) holoenzyme (rat) (UniProt P11275); assay: as above; remark: listed apart in the source

full-length CaMKIIα wild type (Ca2+/calmodulin-dependent protein kinase II α) holoenzyme (a stretch of the chain, sequence left out) (enzyme; other documents disagree on this pair)
stoichiometry N [1]: 14
stoichiometry N [2]: 12

Where two headings read alike, the source gives them in different places.
